In article PMC9574860, “Chemical Toolkit for PARK7: Potent, Selective, and High-Throughput” (Journal of Medicinal Chemistry, 2022):
The campaign covered roughly 7,900 compounds. About 400 (5.1%) showed an effect of 50% or more. This is one part of the list.

target: Parkinson's disease protein 7 (PARK7/DJ1) (human, UniProt Q99497); assay: primary screen, percent inhibition; read as competition with a fluorescent probe by fluorescence polarization; higher = more effect of the substance; conditions: 100 µM
How it was run: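 Covalent fragments at 100 μM final were incubated 2 h with 0.2 μM PARK7, then 20 nM probe JYQ-107 added for a further 2 h. Fluorescence polarization read at 480/520 nm; relative FP loss versus reference controls gave remaining enzyme activity.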

Sequence of Parkinson's disease protein 7 (PARK7/DJ1) (Q99497 whole entry, looked up, the tested form may be a part): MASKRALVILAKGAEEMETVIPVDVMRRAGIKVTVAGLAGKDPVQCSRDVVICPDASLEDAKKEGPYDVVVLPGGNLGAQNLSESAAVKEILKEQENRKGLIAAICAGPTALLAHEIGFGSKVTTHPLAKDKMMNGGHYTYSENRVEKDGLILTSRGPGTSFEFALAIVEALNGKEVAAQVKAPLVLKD

Row | Structure (SMILES) | Inhibition % [%]
1 | O=C(CCl)Nc1ccc(S(=O)(=O)N2CCCC2)cc1 | 85.4
2 | O=C(CCl)N1CCC(c2nc3ccccc3s2)CC1 | 38.1
3 | C=CC(=O)N1CCC(CC(=O)NC)CC1 | 5.8
4 | Clc1ccc(Cl)c(C2CO2)c1 (stereo not shown) | 11.1
5 | O=C(CCl)Nc1cccc(S(=O)(=O)N2CCOCC2)c1 | 8.1
6 | Cc1nc(S)c(C#N)c(-c2ccco2)c1C(=O)N(C)C | 27.4
7 | C=CC(=O)NC1COC(C)C1 (stereo not shown) | 5.84
8 | Cc1cccc(NC(=O)CCCCl)c1 | 16
9 | Cc1ccc2c(c1)C(NC(=O)C1CSC(=O)N1)C(C)C2 (stereo not shown) | 3.23
10 | C=CCNC(=O)C(C#N)=Cc1cccc(F)c1 | 25.3
11 | CS(=O)(=O)C(C#N)=Cc1cccc(Cl)c1Cl | 7.8
12 | C=CC(=O)NCC1CC(C)OC1C (stereo not shown) | 9.66
13 | C=CC(=O)N1CCN(S(C)(=O)=O)[C@H](C)C1 | 7.14
14 | C=CC(=O)NC(c1ccccn1)C1CCC1 (stereo not shown) | 8.31
15 | Cc1ccc(C=C(C#N)C(N)=O)c(C)c1 | 4.01
16 | CN(C(=O)CCl)c1ccccc1C(=O)NCc1ccco1 | -1.54
17 | N#CC(=Cc1ccc(F)cc1)C(N)=O | -1.53
18 | COc1cc(C)c(C(C)C)cc1S(=O)(=O)n1ccnc1 | 4.53
19 | C=CC(=O)N1CC=C(C(C)(C)C)CC1 | 8.33
20 | O=C(CCl)c1sccc1Cl | 94.4
21 | N#Cc1cc(C(=O)NCC2CCc3nccn3C2)c[nH]1 (stereo not shown) | 16.5
22 | C=CC(=O)NCc1cnn(C)c1 | 11.9

Row | Structure (SMILES) | Inhibition % [%]
23 | Cn1cc(C2NC(=O)C2(C)C)cn1 (stereo not shown) | 9.65
24 | Cc1cc(CNc2nccnc2C#N)ccc1Cl | 4.27
25 | CC(C)(C)N1CC(Nc2ccc(C#N)nc2)CC1=O (stereo not shown) | -0.609
26 | COc1ccc(S(=O)(=O)F)cc1C(=O)O | 20.2
27 | Cc1ccc(OCC2CO2)cc1 (stereo not shown) | 5.56
28 | CC1CN(Cn2nc(-c3ccccc3)oc2=O)CC(C)O1 (stereo not shown) | 7.53
29 | COc1ccc(S(=O)(=O)n2cccn2)cc1C(C)(C)C | 9.73
30 | C=CC(=O)NCc1nnc(-c2ccncc2F)s1 | 3.91
31 | N#Cc1ccc(S(=O)(=O)CCCl)cc1 | 0.986
32 | Cc1c(F)cccc1NC(=O)N1CCCC12CCOC2=O (stereo not shown) | 2.48
33 | C=CC(=O)NC1CCC1C1CC1 (stereo not shown) | 4.78
34 | Nc1cc(=O)nc(S)n1Cc1ccccc1 | 13
35 | C=CC(=O)N1CC(=O)Nc2cccc3c2C1CCC3 (stereo not shown) | 7.81
36 | CC(C)OCc1cccc(B(O)O)c1 | 3.49
37 | CC1(C)OB(c2cccc(S(N)(=O)=O)c2)OC1(C)C | 2.2
38 | NC(=O)c1ccc(S(=O)(=O)OCC(F)(F)F)cc1 | -2.83
39 | OB(O)c1cnn(-c2ccc(C(F)(F)F)cc2)c1 | 11.3
40 | C=CC(=O)N1CCN(CC)C(=O)C1C (stereo not shown) | 5.08
41 | O=c1[nH]nc(-c2cccs2)o1 | 12.1
42 | O=C(CCl)Nc1cccnc1N1CCCC1 | 18.8
43 | O=C(c1cccs1)N1CCC(CS(=O)(=O)F)C1 (stereo not shown) | 97.1
44 | C=CC(=O)N1CCC(CCCn2ccnc2)CC1 | 3.21

Row | Structure (SMILES) | Inhibition % [%]
45 | N#Cc1ccc(C(F)(F)F)[nH]1 | 7.52
46 | CC1(C)OB(c2ccc3c(c2)C(=O)NCCO3)OC1(C)C | 2.85
47 | OB(O)c1cccc2c1OCCC2 | 4.89
48 | COc1ccc(NC(=O)c2cccnc2S)cn1 | 4.24
49 | Cl.O=C(CCl)N1CCN(Cc2cccc(Cl)c2)CC1 | 6.86
50 | Cl.O=C(NC1CCNCC1)Oc1ccccc1 | 6.77
51 | CNC(=O)n1ccnc1 | 75.1
52 | C=CC(=O)NCC12CC(CO1)C2 | 4.75
53 | CNC(=O)C(C)(C)CNc1ccc(C#N)nc1 | 3.68
54 | C=CC(=O)Nc1cnn(C)c1C(F)F | 3.32
55 | C=CC(=O)Nc1nsc(N2CCCC2)n1 | 16
56 | Cc1csc(N2CCN(C3CCOC3=O)CC2)n1 (stereo not shown) | 5.83
57 | C=CC(=O)NC(C)(C)c1nc(C)c(C)s1 | 12.9
58 | O=C(CCl)Nc1ccc(Cl)cc1 | 60.3
59 | Cc1cc(NC(=O)c2cccnc2S)nn1C | 4.06
60 | C=CC(=O)N1CC(=O)N(C)CC1C (stereo not shown) | 8.04
61 | COC(Cc1ncccn1)OC | 11.1
62 | N#Cc1ncn(CCOc2ccc(F)cc2)n1 | 5.39
63 | COc1ccc(OC)c(-c2csc(NC(=O)CCl)n2)c1 | 6.67
64 | C=CC(=O)NCCCc1cnn(C)n1 | 5.99
